# Measured values reported in the supplement of paper PMC8728848.
# Some of the results follow.
# B1: PA-IL (Pseudomonas aeruginosa), Q05097 (protein)
# chain: MAWKGEVLANNEAGQVTSIIYNPGDVITIVAAGWASYGPTQKWGPQGDREHPDQGLICHDAFCGALVMKIGNSGTIPVNTGLFRWVAPNNVQGAITLIYNDVPGTYGNNSGSFSVNIGKDQS
# Tests used:
# Experiment in all cases: glycan array binding signal (z-score within array); higher = stronger binding
# Settings in all cases: glycan notation: IUPAC condensed, linker removed
# Fuc(a1-2)Gal = target: Fuc(a1-2)Gal
# Method in brief: (§1)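 Columns mapping to the same glycan were averaged after glycan names were converted to IUPAC-condensed notation. The data come from 3228 arrays in the Consortium for Functional Glycomics database, limited to those with an available protein sequence. Binding is reported as a within-array Z-score averaged across arrays of one protein sequence and across linkers.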
# Fuc(a1-2)Gal(b1-3)GalNAc = target: Fuc(a1-2)Gal(b1-3)GalNAc
# Method in brief: as §1
# [1] = target: Fuc(a1-2)Gal(b1-3)GalNAc(a1-3)[Fuc(a1-2)]Gal(b1-4)Glc
# Method in brief: as §1
# [2] = target: Fuc(a1-2)Gal(b1-3)GalNAc(a1-3)[Fuc(a1-2)]Gal(b1-4)GlcNAc
# Method in brief: as §1
# [3] = target: Fuc(a1-2)Gal(b1-3)GalNAc(b1-3)Gal
# Method in brief: as §1
# [4] = target: Fuc(a1-2)Gal(b1-3)GalNAc(b1-3)Gal(a1-4)Gal(b1-4)Glc
# Method in brief: as §1
# [5] = target: Fuc(a1-2)Gal(b1-3)GalNAc(b1-4)[Neu5Ac(a2-3)]Gal(b1-4)Glc
# Method in brief: as §1
# Fuc(a1-2)Gal(b1-3)GlcNAc = target: Fuc(a1-2)Gal(b1-3)GlcNAc
# Method in brief: as §1
# [6] = target: Fuc(a1-2)Gal(b1-3)GlcNAc(b1-2)Man(a1-3)[Fuc(a1-2)Gal(b1-3)GlcNAc(b1-2)Man(a1-6)]Man(b1-4)GlcNAc(b1-4)GlcNAc
# Method in brief: as §1
# [7] = target: Fuc(a1-2)Gal(b1-3)GlcNAc(b1-2)Man(a1-3)[Fuc(a1-2)Gal(b1-3)GlcNAc(b1-2)Man(a1-6)]Man(b1-4)GlcNAc(b1-4)[Fuc(a1-6)]GlcNAc
# Method in brief: as §1
# [8] = target: Fuc(a1-2)Gal(b1-3)GlcNAc(b1-3)Gal(b1-4)Glc
# Method in brief: as §1
# [9] = target: Fuc(a1-2)Gal(b1-3)GlcNAc(b1-3)GalNAc
# Method in brief: as §1
# [10] = target: Fuc(a1-2)Gal(b1-3)GlcNAc(b1-3)[Fuc(a1-2)Gal(b1-3)GlcNAc(b1-6)]GalNAc
# Method in brief: as §1
# [11] = target: Fuc(a1-2)Gal(b1-3)GlcNAc(b1-3)[Fuc(a1-3)[Gal(b1-4)]GlcNAc(b1-6)]Gal(b1-4)Glc
# Method in brief: as §1
# [12] = target: Fuc(a1-2)Gal(b1-3)GlcNAc(b1-3)[Gal(b1-4)GlcNAc(b1-6)]Gal(b1-4)Glc
# Method in brief: as §1
# [13] = target: Fuc(a1-2)Gal(b1-3)GlcNAc(b1-3)[Neu5Ac(a2-6)Gal(b1-4)GlcNAc(b1-6)]Gal(b1-4)Glc
# Method in brief: as §1
# [14] = target: Fuc(a1-2)Gal(b1-3)GlcNAc6S
# Method in brief: as §1
# [15] = target: Fuc(a1-2)Gal(b1-3)[Fuc(a1-4)]GlcNAc
# Method in brief: as §1
# [16] = target: Fuc(a1-2)Gal(b1-3)[Fuc(a1-4)]GlcNAc(b1-2)Man(a1-3)[Fuc(a1-2)Gal(b1-3)[Fuc(a1-4)]GlcNAc(b1-2)Man(a1-3)]Man(b1-4)GlcNAc(b1-4)GlcNAc
# Method in brief: as §1
# [17] = target: Fuc(a1-2)Gal(b1-3)[Fuc(a1-4)]GlcNAc(b1-2)Man(a1-3)[Fuc(a1-2)Gal(b1-3)[Fuc(a1-4)]GlcNAc(b1-2)Man(a1-6)]Man(b1-4)GlcNAc(b1-4)GlcNAc
# Method in brief: as §1
# [18] = target: Fuc(a1-2)Gal(b1-3)[Fuc(a1-4)]GlcNAc(b1-2)Man(a1-3)[Fuc(a1-2)Gal(b1-3)[Fuc(a1-4)]GlcNAc(b1-2)Man(a1-6)]Man(b1-4)GlcNAc(b1-4)[Fuc(a1-6)]GlcNAc(b1-4)[Fuc(a1-6)]GlcNAc
# Method in brief: as §1
# [19] = target: Fuc(a1-2)Gal(b1-3)[Fuc(a1-4)]GlcNAc(b1-3)[Fuc(a1-3)[Gal(b1-4)]GlcNAc(b1-6)]Gal(b1-4)Glc
# Method in brief: as §1
# [20] = target: Fuc(a1-2)Gal(b1-3)[Fuc(a1-4)]GlcNAc(b1-3)[Gal(b1-4)GlcNAc(b1-6)]Gal(b1-4)Glc
# Method in brief: as §1
# [21] = target: Fuc(a1-2)Gal(b1-4)Fuc(a1-3)]GlcNAc(b1-2)Man(a1-3)[Fuc(a1-2)Gal(b1-4)[Fuc(a1-3)]GlcNAc(b1-2)Man(a1-6)]Man(b1-4)GlcNAc(b1-4)GlcNAc
# Method in brief: as §1
# Fuc(a1-2)Gal(b1-4)Glc = target: Fuc(a1-2)Gal(b1-4)Glc
# Method in brief: as §1
# Fuc(a1-2)Gal(b1-4)Glc6S = target: Fuc(a1-2)Gal(b1-4)Glc6S
# Method in brief: as §1
# Fuc(a1-2)Gal(b1-4)GlcNAc = target: Fuc(a1-2)Gal(b1-4)GlcNAc
# Method in brief: as §1
# [22] = target: Fuc(a1-2)Gal(b1-4)GlcNAc(b1-2)Man
# Method in brief: as §1
# [23] = target: Fuc(a1-2)Gal(b1-4)GlcNAc(b1-2)Man(a1-3)[Fuc(a1-2)Gal(b1-4)GlcNAc(b1-2)Man(a1-6)]Man(b1-4)GlcNAc(b1-4)GlcNAc
# Method in brief: as §1
# [24] = target: Fuc(a1-2)Gal(b1-4)GlcNAc(b1-2)Man(a1-3)[Fuc(a1-2)Gal(b1-4)GlcNAc(b1-2)Man(a1-6)]Man(b1-4)GlcNAc(b1-4)[Fuc(a1-6)]GlcNAc
# Method in brief: as §1
binder,measurement,setting,value
B1,glycan array binding signal (z-score),Fuc(a1-2)Gal,-0.23
same,glycan array binding signal (z-score),Fuc(a1-2)Gal(b1-3)GalNAc,-0.228
same,glycan array binding signal (z-score),[1],-0.224
same,glycan array binding signal (z-score),[2],-0.238
same,glycan array binding signal (z-score),[3],-0.225
same,glycan array binding signal (z-score),[4],-0.234
same,glycan array binding signal (z-score),[5],-0.229
same,glycan array binding signal (z-score),Fuc(a1-2)Gal(b1-3)GlcNAc,-0.226
same,glycan array binding signal (z-score),[6],-0.196
same,glycan array binding signal (z-score),[7],-0.217
same,glycan array binding signal (z-score),[8],-0.233
same,glycan array binding signal (z-score),[9],-0.231
same,glycan array binding signal (z-score),[10],-0.177
same,glycan array binding signal (z-score),[11],-0.228
same,glycan array binding signal (z-score),[12],-0.228
same,glycan array binding signal (z-score),[13],-0.224
same,glycan array binding signal (z-score),[14],-0.23
same,glycan array binding signal (z-score),[15],-0.23
same,glycan array binding signal (z-score),[16],-0.189
same,glycan array binding signal (z-score),[17],-0.22
same,glycan array binding signal (z-score),[18],-0.214
same,glycan array binding signal (z-score),[19],-0.233
same,glycan array binding signal (z-score),[20],-0.228
same,glycan array binding signal (z-score),[21],-0.202
same,glycan array binding signal (z-score),Fuc(a1-2)Gal(b1-4)Glc,-0.223
same,glycan array binding signal (z-score),Fuc(a1-2)Gal(b1-4)Glc6S,-0.219
same,glycan array binding signal (z-score),Fuc(a1-2)Gal(b1-4)GlcNAc,-0.224
same,glycan array binding signal (z-score),[22],-0.202
same,glycan array binding signal (z-score),[23],-0.223
same,glycan array binding signal (z-score),[24],-0.215
